The text below walks through data of patent US20250188167A1.

The target of this assay is human B7-H3 (human), Q5ZPR3. Briefly: cell-based or functional assay.
human B7-H3 (human), Q5ZPR3, sequence (Q5ZPR3 29-534): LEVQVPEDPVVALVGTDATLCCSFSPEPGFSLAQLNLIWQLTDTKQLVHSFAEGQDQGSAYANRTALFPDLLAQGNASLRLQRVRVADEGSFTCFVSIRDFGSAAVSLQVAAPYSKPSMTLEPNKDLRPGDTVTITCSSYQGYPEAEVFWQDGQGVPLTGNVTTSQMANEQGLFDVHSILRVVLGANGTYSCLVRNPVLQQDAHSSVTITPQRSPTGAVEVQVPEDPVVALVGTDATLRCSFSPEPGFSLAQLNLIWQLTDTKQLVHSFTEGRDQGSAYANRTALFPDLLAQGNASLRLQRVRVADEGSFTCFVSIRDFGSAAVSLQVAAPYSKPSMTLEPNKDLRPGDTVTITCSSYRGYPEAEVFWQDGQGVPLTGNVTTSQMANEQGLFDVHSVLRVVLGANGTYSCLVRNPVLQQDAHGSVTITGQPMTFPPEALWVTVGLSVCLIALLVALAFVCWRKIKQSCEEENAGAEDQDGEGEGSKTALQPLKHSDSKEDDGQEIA

B1: 47F3F10B4-hIgG1 (antibody)
heavy: EVQLQQSGPELVKPGASVKMSCKASGYTFTDHYMHWVKQSHGKSLEWIGYIFPNNGVSGYNQNFKDKATLTVDKSSSTAYMDLRSLTPEDSAVYYCTRRQLGLGTMDYWGQGTSVTVSS[human IgG1 constant region omitted]
light: DIVLTQSPASLAVSLGQRATISCRASKSVSTSGYNYMHWYQQKPGQPPKLLIYLASNLESGVPARFSGSGSGTDFTLNIHPVEEEDAATYYCQHSKELPWTFGGGTKLEIKRTVAAPSVFIFPPSDEQLKSGTASVVCLLNNFYPREAKVQWKVDNALQSGNSQESVTEQDSKDSTYSLSSTLTLSKADYEKHKVYACEVTHQGLSSPVTKSFNRGEC
Take B1: the ADCC % Relative activity (EC50 of positive control MGA-271 / EC50 of sample), plate 02 is 1530%; the ADCC EC50 (% target cell lysis, LDH; NK92/CD16a-VV effector cells), plate 02 turned out to be 0.00289 µg/mL; the CDC % Relative activity (EC50 of positive control DS-5573a / EC50 of sample) came out at 165%; the CDC EC50 (% target cell lysis, Cell Titer-Glo) is 0.418 µg/mL.
